The campaign covered roughly 44,000 compounds. About 340 (0.77%) were called active. Another 5% or so got no clear call; they are omitted. The call rests on the fitted dose curve; in most records, active means well fitted inhibition curve with a large enough effect; inconclusive means small, poorly fitted or top-dose-only effect; inactive means flat fitted curve, though single readings scatter. The list shows a part of the results.
test: Acumen qHTS Assay for Inhibitors of the mTORC1 Signaling Pathway in MEF (Tsc2-/-, p53-/-) Cells: Sytravon; conditions: phospho-rpS6 immunofluorescence/PI, 24 h; series mostly up to 38.3 µM; activity change, negative = inhibition: at the top concentration;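 further: plate controls were DMSO for no effect and rapamycin for full effect; nearly all actives have a fitted effect of over 50% in size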
Procedure, shortened: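 Compounds act on Tsc2-/-, p53-/- fibroblasts carrying an empty vector for 24 h before fixation and dual staining for phospho-S6 and DNA (propidium iodide). Values are percentages of cells above a rapamycin-defined pS6/PI threshold.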

Activity change, negative = inhibition, inactive:
Cc1ccc(Nc2cc(C)c(C#N)c3nc4ccccc4n23)cc1Cl 2.44%
CC(C)c1cc(-c2nc(-c3ccccc3)no2)n[nH]1 1.33%
CN(CC(=O)Nc1ccccc1Cl)S(=O)(=O)c1ccc(C(=O)N2CCOCC2)s1 -0.246%
COc1ccc(S(=O)(=O)N2CCN(Cc3ccc4c(c3)OCO4)CC2)cc1OC -17.5%
COCCNC(=O)c1nn(-c2ccc(Cl)cc2)nc1CO 1.7%
Cn1cnc(S(=O)(=O)N2CCC(C(=O)NCc3ccc(Cl)cc3)CC2)c1 0%
COc1ccc(CNC(=O)c2cc3c(=O)n(C)c4ccccc4c3n2C)cc1 0.191%
O=C(Cc1ccccc1)N(Cc1cccnc1)c1nc2ccc(F)cc2s1 -5.23%
O=C(CSc1ccccc1)NCc1ccc2c(c1)CCN2C(=O)c1ccc(F)cc1 -13.3%
CCOc1cc(C2CC(=O)Nc3nc(SCc4ccccc4)[nH]c(=O)c32)ccc1O (centres undefined) 0.52%
CCc1ccc2oc(-c3ccc(NC(=O)c4cc(OC)c(OC)c(OC)c4)cc3)nc2c1 -6.98%
CCOC(=O)c1ccc(N2C(=O)c3[nH]nc(-c4ccc(OCC)cc4)c3C2c2ccc(OC)cc2OC)cc1 (centres undefined) 2.69%
O=C(Nc1cccc2cccnc12)c1ccc(F)cc1 -1.49%
Cc1ccccc1-c1nnc(C2CCN(S(=O)(=O)c3ccc(Cl)cc3)CC2)o1 0.362%
CCc1ccc(CNC(=O)CCCN2C(=O)c3cccnc3Oc3ccc(Cl)cc32)cc1 -5.42%
O=C(COc1ccccc1)Nc1nnc(S(=O)(=O)N2CCCCCC2)s1 -18.9%
Cc1nn2c(=O)cc(COC(=O)C(c3ccccc3)c3ccccc3)nc2s1 -16.3%
COc1ccc(CNC(=O)c2cc3c(=O)[nH]c4ccccc4c3n2C)c(OC)c1 3.1%
Cc1ccc2c(c1)N(C(=O)N1CCC(C(=O)NCc3cccs3)CC1)CC(C)O2 (centres undefined) 1.59%
COc1ccc(CCNC(=O)CCCn2c(=O)c3ccccc3n(CC(=O)Nc3ccc(C)cc3Cl)c2=O)cc1OC -31%
CC(NC(=O)CN1C(=O)COc2ccc(Cl)cc21)c1ccccc1 (centres undefined) -0.11%
Cc1cccc(N(CC(=O)NCCSc2ccc(Cl)cc2)S(C)(=O)=O)c1C 1.81%
Cc1ccc(-c2c(C(=O)N(C)Cc3ccccc3)oc(=O)c3ccccc23)cc1 -9.03%
Cc1ccc(NC(=O)C2CCN(C(=O)c3cnn(-c4ccccc4)c3-n3cccc3)CC2)cc1C -4.03%
O=C(NCC(c1cccnc1)N1CCc2ccccc2C1)C(=O)Nc1ccc(F)cc1F (centres undefined) -11.8%
Cc1cccc(-c2nc(C)c(CCNC(=O)c3cccs3)s2)c1 1.86%
O=C(CN1CCCN(Cc2cccc(F)c2)S1(=O)=O)Nc1ccc2c(c1)OCCO2 0%
CC(C)c1ccc(NC(=O)CCNS(=O)(=O)c2ccc3c(c2)oc(=O)n3C)cc1 -11.4%
C=C(C)Cn1c(SCC(=O)Nc2cccc(C)c2)nc2sc3c(c2c1=O)CCCC3 2.25%
COC(=O)c1nnn(-c2ccc(Cl)cc2)c1C(=O)OC -1.58%
O=C(CCS(=O)(=O)c1nc(-c2ccc3c(c2)OCO3)cc(C(F)(F)F)n1)Nc1ccc(F)cc1F 2.5%
CCS(=O)(=O)c1ncc(Cl)c(C(=O)Nc2c(C(=O)c3ccc(C)cc3)oc3ccccc23)n1 -4.91%
Cc1ccc(-n2ncc(C(=O)N3CCN(C(=O)c4ccco4)CC3)c2C2CCN(C(=O)OC(C)(C)C)CC2)cc1 -3.09%
COc1cccc(-c2cn3c(n2)sc2cc(C(=O)NCCC4=CCCCC4)ccc23)c1 -1.23%
O=C(CSc1oc(-c2ccc(F)cc2)nc1S(=O)(=O)c1ccc(Cl)cc1)c1ccccc1 -5.11%
Cc1cccc(CCNC(=O)c2nn(C)c3c2CSc2ccccc2-3)c1 1.01%
O=C(c1ccc2c(c1)N(Cc1cccc(Cl)c1)C(=O)c1ccccc1S2(=O)=O)N1CCCCCC1 -7.39%
CCOc1ccc(CN(C(=O)c2cc(=O)c3cc(Cl)ccc3o2)C2CCS(=O)(=O)C2)cc1 (centres undefined) -10.2%
CCCCOC(=O)c1c(C)oc2ccc(NS(=O)(=O)c3ccc(F)cc3C)cc12 -2.13%
CCc1ccc(CNc2ncnc3onc(-c4ccc(Cl)cc4)c23)cc1 -14.5%
COc1ccc(-c2cc(C(F)(F)F)n3nc(C(=O)Nc4sc5c(c4C(=O)OC(C)C)CCCC5)cc3n2)cc1OC -0.262%
COc1ccc(N2CCN(C(CNC(=O)c3cccc(OC)c3)c3cccnc3)CC2)cc1 (centres undefined) -4.89%
CCN(CC)C(=O)C1CCN(c2cc(C)nc3c(-c4ccc(OC)c(OC)c4)c(C)nn23)CC1 -3.58%
Cn1c(C(=O)N2CCCC(C(=O)N3CCN(c4ccccc4)CC3)C2)cc2sccc21 (centres undefined) -1.63%
COc1ccc(NC(=O)Cn2c(=O)n(-c3ccc(C)c(C)c3)c(=O)c3c4c(sc32)CCCCC4)cc1Cl 1.65%
CCc1ccc(NC(=O)CSc2cn(CC(=O)N3CCOCC3)c3ccccc23)cc1 2.32%
CCCCNC(=O)CSC1=Nc2ccccc2C2=NC(CCC(=O)NCc3ccccc3OC)C(=O)N12 (centres undefined) -1.92%
CC(CC(=O)NCc1ccc(Cl)cc1Cl)CC1=NS(=O)(=O)c2ccccc2N1 (centres undefined) -3.83%
COc1ccc(CCNC(=O)c2cc(=O)c3c(C)cc(C)cc3o2)cc1OC -7.77%
COC(=O)c1ccc(NC(=O)C(=O)NCCc2sc3nc(-c4ccc(OC)cc4)nn3c2C)cc1 0.562%
O=C(CCn1c(=O)c2cccn2c2cccnc21)NCc1ccc(Cl)cc1 1.5%
COc1ccccc1NC(=O)C1=C(C)Nc2c(C(=O)Nc3cccc(C)c3)cnn2C1c1ccccc1C (centres undefined) -9.99%
COc1cc2c(cc1OC)n(CC(=O)Nc1ccccc1)c(=O)n1nc(-c3ccccc3)nc21 -12.7%
Cc1ccc(/C=C/c2nc3ccccc3n2S(=O)(=O)c2cccc(Cl)c2)cc1 -5.04%
Cc1cccc(OC(=O)c2nc(SCc3ccccc3F)ncc2Cl)c1 -0.237%
CCOC(=O)c1ccc(NC(=O)Cn2cc(C(=O)c3cccs3)c3ccccc32)cc1 2.35%
Cc1ccc(Nc2nc3c(S(=O)(=O)c4ccccc4)nnn3c3ccc(Cl)cc23)c(C)c1 -6.68%
Cc1nc2ccn(Cc3cccs3)c(=O)c2cc1C(=O)NCc1ccc(Cl)cc1 -5.14%
CCCN(CCC)CCCNC(=O)c1sc2nc3n(c(=O)c2c1C)CCC3 1.5%
Cc1ccccc1OCCSc1nnc(-c2ccc([N+](=O)[O-])cc2)o1 0%
O=C(NCC(c1ccc2c(c1)OCO2)N1CCOCC1)C(=O)Nc1ccc(Cl)cc1 (centres undefined) -2.68%
Oc1cccc(-c2nc(-c3cccs3)c(-c3cccs3)[nH]2)c1 -9.09%
COc1ccccc1NC(=O)c1cc2c(n(-c3ccc(C)cc3)c1=O)CC(C)(C)CC2=O 3.32%
COc1ccc(CNC(=O)CSCc2ccc(C)cc2)c(OC)c1 0.914%
O=C(c1ccc2c(c1)N(Cc1cccc(Cl)c1)C(=O)c1ccccc1S2(=O)=O)N1CCN(Cc2ccccc2)CC1 -6.97%
CCc1cc2c(cc3c(=O)n(CC(=O)NC(C)C)nc(CC)n32)s1 0.0695%
CCC1CCCCN1CCCNC(=O)c1sc2nc(C)cc(C)c2c1-n1cccc1 (centres undefined) 0.408%
COc1ccc(CNC(=O)Cn2c(=O)n3nc(-c4cccc(F)c4)nc3c3ccccc32)cc1OC 1.71%
COc1ccc(CNC(=O)C2=Cc3cccc(OC)c3OC2)cc1OC 3.95%
O=C(Nc1ccc(F)cc1F)c1cc(CN2CCOCC2)on1 -1.79%
COc1ccc(OC)c(NS(=O)(=O)c2ccc3c(c2)CCCN3C(=O)C2CCC2)c1 0.404%
COc1cccc(C(c2sc3nc(-c4ccco4)nn3c2O)N2CCC3(CC2)OCCO3)c1 (centres undefined) -13.9%
CCc1ccc(CNC(=O)c2ccc(-n3c(C)cc4c3CCC(C)C4)cc2)cc1 (centres undefined) -11%
Cc1ccc(S(=O)(=O)Nc2ccc3c(c2)CCCN3C(=O)c2cccs2)cc1C 0.28%
COc1cc(Br)c(C2CC(=O)Nc3cc4c(cc32)OCCO4)cc1OC (centres undefined) -13.2%
Cc1cccc(NC(=O)C(Cc2ccccc2)N2Cc3ccccc3C2=O)c1C (centres undefined) 4.16%
CCc1ccc(NC(=O)c2ccc(F)c(S(=O)(=O)N3CCc4ccccc4C3)c2)cc1 -4.17%
CCc1nn(CC(=O)NCCN(CC(C)C)CC(C)C)c(=O)c2cc3sc(C)cc3n12 -3.68%
COc1ccc(-c2nc(CSc3nnc(C)n4c3cc3sccc34)c(C)o2)cc1 -10.2%
Oc1ccccc1-c1nc2ccc(Cl)cn2c1Nc1ccc2c(c1)OCCO2 -1.32%
O=C(Nc1c(C(=O)N2CCN(c3ccccc3F)CC2)oc2ccccc12)c1ccc(Br)o1 -18.2%
COc1ccc(-c2ccc(=O)n(CC(=O)Nc3ccccc3C(F)(F)F)n2)cc1 -2.12%
CCS(=O)(=O)N1CCc2cc(C(=O)Nc3cccc(NC(C)=O)c3)ccc21 -5.42%
Cc1ccc(C2c3[nH]c4ccccc4c3CCN2C(=O)CSc2ccccc2)cc1 (centres undefined) -5.91%
Cn1c(=O)oc2cc(S(=O)(=O)N3CCCC(C(=O)N4CCN(c5ccc(F)cc5)CC4)C3)ccc21 (centres undefined) -0.0585%
CC(Oc1ccc(Br)cc1)C(=O)N(Cc1nc(-c2ccccc2)no1)C(C)C (centres undefined) -19.5%
O=C(NCCCN1CCN(c2ccccc2)CC1)c1ccc2nc(CCc3ccccc3)oc2c1 0.0904%
Cc1ccccc1OCC(=O)Nc1nnc(S(=O)(=O)N2CCCCCC2)s1 -10.2%
CCc1nn2c(=O)cc(COC(=O)c3ccccc3NC(=O)c3ccc(C(C)(C)C)cc3)nc2s1 3.95%
CSc1cccc(NC(=O)C2CCCN(S(=O)(=O)c3ccc4c(c3)CCCN4C(C)=O)C2)c1 (centres undefined) -5.53%
Cc1ccc(-n2c(-c3cccc(C)c3)nc3c(cnn3-c3ccccc3)c2=O)cc1 9.46%
Cc1ccc2c(c1)c1c(c(=O)n(-c3cccc(Cl)c3)c(=O)n1CC(=O)Nc1c(C)cccc1C)n2C 1.97%
CCOC(=O)c1ccccc1NC(=O)CSc1nc2cn(CC)nc2c(=O)n1Cc1ccc(Cl)cc1 0.643%
Cc1ccc(CN2CCSc3ccc(C(=O)N4CCN(c5ccccc5)CC4)cc32)cc1 5.43%

From PubChem BioAssay AID493208 (National Center for Advancing Translational Sciences (NCATS), 2011)
